Assay results as given in article PMC6919601, “Identification of Plasmodium dipeptidyl aminopeptidase allosteric inhibitors by high throughput screening” (PLoS ONE, 2019).
In all, about 110,000 compounds went through this assay and about 230 (0.21%) showed an effect of 50% or more. The list shows a part of the results. Where a SMILES comes first, the peptide text is derived from it. The star is where a group is joined. Boc = CC(C)(C)OC(=O)*

Target: DPAP1 (Plasmodium falciparum, UniProt Q8IIJ9)
Assay: primary screen, percent inhibition; read by cleavage of a fluorogenic dipeptide substrate; higher = more effect of the substance
Design: species or system P. falciparum D10 trophozoite lysates; single well
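Note: 30 min substrate incubation versus DMSO and 10 µM JCP410 controls.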

DPAP1, sequence (Q8IIJ9 whole entry, looked up): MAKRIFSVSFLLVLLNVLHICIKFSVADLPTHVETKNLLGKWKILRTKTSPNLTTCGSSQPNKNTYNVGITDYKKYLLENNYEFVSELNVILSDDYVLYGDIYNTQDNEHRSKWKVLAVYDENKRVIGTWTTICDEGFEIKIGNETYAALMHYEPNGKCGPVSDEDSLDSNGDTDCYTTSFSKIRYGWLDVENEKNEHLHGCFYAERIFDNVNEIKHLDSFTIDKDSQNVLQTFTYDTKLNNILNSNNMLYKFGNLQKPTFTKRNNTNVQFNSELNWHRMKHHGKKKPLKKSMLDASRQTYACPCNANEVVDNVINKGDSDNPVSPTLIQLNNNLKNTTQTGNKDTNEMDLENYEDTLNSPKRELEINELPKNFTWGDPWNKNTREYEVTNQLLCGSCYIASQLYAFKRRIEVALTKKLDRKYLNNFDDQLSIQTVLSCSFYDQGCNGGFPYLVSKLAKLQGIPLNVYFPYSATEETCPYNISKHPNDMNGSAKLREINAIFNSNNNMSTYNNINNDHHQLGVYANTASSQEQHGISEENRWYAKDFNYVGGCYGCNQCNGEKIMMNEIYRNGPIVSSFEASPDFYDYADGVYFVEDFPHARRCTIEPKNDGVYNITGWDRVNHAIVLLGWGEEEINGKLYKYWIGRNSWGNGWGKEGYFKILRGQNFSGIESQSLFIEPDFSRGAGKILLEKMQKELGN

| SMILES | % Inhibition @ 10 uM [%] |
| --- | --- |
| Cc1cc(C)c2c(-n3cccc3)nn(CC(=O)NCCC(C)C)c2n1 | 1.64 |
| CC(C)N(Cc1ccccc1)C(=O)C(Cc1ccccc1)NS(=O)(=O)c1cccc2nsnc12 (centres unmarked) | -9.06 |
| CCC1CCCCN1S(=O)(=O)c1ccc2ccc(C)cc2c1 (centres unmarked) | -2.91 |
| Cc1ccc(-c2cn3c(n2)sc2cc(C(=O)NCCCOC(C)C)ccc23)c(C)c1 | -0.613 |
| O=C(Cc1ccccc1)NCCN1CCOCC1 | 0.986 |
| O=C(COc1ccccc1)Nc1cccc(C(=O)O)c1 | -2.84 |
| COc1ccc(/C=C2\Nc3ccccc3C2=O)cc1 | -4.5 |
| O=C(Nc1nonc1NC(=O)C12CC3CC(CC(C3)C1)C2)c1ccccc1Cl | -4.49 |
| Cc1cccc(N2C(=O)C3CC=CCC3C2=O)c1 (centres unmarked) | -1.07 |
| O=C(O)Cc1cccc2c1sc1ccccc12 | 2.4 |
| COc1cc(OC)c2c(C)c(CC(=O)NCc3ccco3)c(=O)oc2c1 | 0.895 |
| O=C(Nc1ccccc1-c1nc2ccccc2s1)c1cccnc1 | -1.82 |
| Cc1[nH]nc2c1C(c1c(Cl)cccc1Cl)C(C#N)=C(N)O2 (centres unmarked) | -4.94 |
| O=C(O)CN1C(=O)C2CC=CCC2C1=O (centres unmarked) | 14.3 |
| O=C1OC(c2ccc(Br)cc2)=N/C1=C\c1ccc2c(c1)OCO2 | 2.98 |
| Cc1c(Cl)cccc1NC(=O)c1ccc(OCC(=O)N2CCCCC2)cc1 | -3.92 |
| C=CCn1c(=S)[nH]c2sc3c(c2c1=O)CC(C)(CC)OC3 (centres unmarked) | 5.61 |
| COc1ccc(-c2[nH]c(C(F)(F)F)nc2-c2nccn2C)cc1 | 1.89 |
| Cc1cccc(N2CCN(C(=O)c3ccccc3NC(=O)C3CC=CCC3C(=O)O)CC2)c1 (centres unmarked) | 0.145 |
| CC(C)(C)OC(=O)NC(Cc1ccccc1)C(=O)N1CCCC1C(=O)O (stereo not drawn) (Boc-Phe-Pro-OH; configuration not given here) | 0.275 |
| COc1ccc(-n2nnnc2C2CCN(S(=O)(=O)N(C)C)CC2)cc1 | -1.71 |
| O=C(N/C(=C/C=C/c1ccccc1)C(=O)N1CCOCC1)c1ccccc1Cl | -6.94 |

| SMILES | % Inhibition @ 10 uM [%] |
| --- | --- |
| O=[N+]([O-])c1cccc(-c2ncnn2-c2ccc(Br)cc2F)c1 | -1.82 |
| COc1cccc(NC(=O)Cc2ccccc2)c1 | 0.247 |
| CN(C)CCCN(CCCN(C)C)Cc1ccc2ccccc2c1 | -0.603 |
| COc1ccc(/C=C2\SC(=O)N(CC(=O)Nc3ccc(C)cc3)C2=O)cc1O | -10.8 |
| CCOC(=O)c1cccc(NC(=O)C(C)Oc2ccccc2C)c1 (centres unmarked) | -3.18 |
| COc1cccc(C2CC(=O)NC(SCC(=O)Nc3ccc(Br)cc3)=C2C#N)c1 (centres unmarked) | -4.76 |
| O=C(COc1ccccc1Br)Nc1ccc(Cl)cc1 | 2.13 |
| CSCCC(NS(=O)(=O)c1cccs1)C(=O)NCCc1ccc(Cl)cc1 (centres unmarked) | -2.56 |
| CCOC(=O)C1CCCCN1Cc1c(Cl)cccc1Cl (centres unmarked) | -4.75 |
| O=C1C2C3C=CC(C3)C2C(=O)N1CNc1ccccc1 (centres unmarked) | -4.68 |
| Cc1ccc(CCNC(=O)CN(C)S(=O)(=O)c2cccc3cccnc23)cc1 | -0.692 |
| N#CCc1ccc(NC(=O)c2ccccc2Br)cc1 | -3.09 |
| CCc1nn(CC(=O)NCc2cccc(OC)c2)c(=O)c2cc3sc(C)cc3n12 | 3.4 |
| CCc1nc2ccc(C(=O)NCCc3ccco3)cc2nc1CC | 3.9 |
| CCCC(=O)c1c(O)nc2cccc3c2c1-c1ccccc1C3=O | 3.05 |
| CCOCCCNCc1c(C(=O)O)c(C)n(Cc2ccccc2F)c1C | -5.49 |
| Cc1ccsc1CN1CCCC(O)C1 (centres unmarked) | -3.56 |
| Clc1ccc(N2N=C(c3cccs3)CC2c2ccco2)cc1 (centres unmarked) | 2.22 |
| Cc1ccccc1Cn1nc(C)c(NC(=O)c2cc(-c3ccco3)on2)c1C | -7.85 |
| CC1CCN(S(=O)(=O)c2ccc(NC(=O)C(c3ccccc3)c3ccccc3)cc2)CC1 | 0.0974 |
| Fc1ccc(CN2CCN(Cc3ccc4ccccc4c3)CC2)cc1 | 7.1 |
| COc1cc(OC)cc(C(=O)Nc2sc3c(c2C(N)=O)CCCCCC3)c1 | 5.24 |

| SMILES | % Inhibition @ 10 uM [%] |
| --- | --- |
| O=C(NCc1ccncc1)c1cccc(Cn2cc(Br)cn2)c1 | -1.33 |
| Cc1ccc(S(=O)(=O)c2nc(S(C)(=O)=O)sc2NCC(C)C)cc1 | -2.25 |
| Nc1c(-c2nc(-c3ccccc3F)no2)nnn1-c1ccccc1 | 5.47 |
| COc1ccc2[nH]c(C)c(CCNCc3ccccc3F)c2c1 | -12.9 |
| CCN(CC)CCCOc1ccc(F)cc1 | 2.26 |
| CNC(=O)/C(=C/c1ccco1)NC(=O)c1ccc(Cl)cc1Cl | -1.44 |
| CCOC(=O)c1c(S(=O)(=O)NCCN2CCCCCC2)c(C)n(C)c1C | 4.2 |
| Cc1cc(N2C(=O)C3CCCN3C2c2ccccc2)no1 (centres unmarked) | 2.9 |
| Cc1ccc(N(CC(=O)Nc2cccc3ccccc23)S(C)(=O)=O)c(C)c1 | 5.82 |
| O=C1CC(N2CCN(c3ccccn3)CC2)C(=O)N1c1ccc(Cl)cc1 (centres unmarked) | -6.62 |
| CC1CCCCN1C(=O)c1ccc([N+](=O)[O-])o1 (centres unmarked) | 4.22 |
| CC1=C(C(=O)OCc2ccccc2)C(c2cccc(Cl)c2)C2=C(O)CCCC2=N1 (centres unmarked) | 2.22 |
| CC1(C)Cc2ccccc2C(/C=C(\O)c2ccccc2)=N1 | -3.8 |
| Cc1ccc(S(=O)(=O)N2CCN(C(=O)CSc3nc4cc(Cl)ccc4s3)C2)cc1 | 40.8 |
| CCCOc1ccc(Cc2nnn(CC(=O)O)n2)cc1 | -2.15 |
| Cc1cc(C)c2c(n1)sc1c(SCc3ccccc3)nc(C)nc12 | -1.47 |
| CN(C)c1ncnc2c1cnn2-c1ccc(F)cc1 | -0.0781 |
| O=C(NCc1ccc(F)cc1)c1ccc(CS(=O)(=O)Cc2ccc(Cl)cc2)o1 | -4.97 |
| CCN1CCN(CCCNC(=O)c2cc3c(O)nc4ccc(C)cc4c3s2)CC1 | 4.41 |
| CSc1nc(O)c2c(n1)-c1ccccc1CC21CCCC1 | -4.8 |
| COc1ccc(CCNc2nc3c(-c4ccccc4)nnn3c3ccccc23)cc1OC | 0.44 |
